Measured values published in the supplement of paper PMC10369915.
Some of the results follow. No stated cut-off is given here; in the data, active = 3.2 or more and inactive = the rest. Most of these values are background signal.

Experiments:
Test in all cases: enrichment score (SH2-bound / input frequency) (ratio); bacterial display of known human phosphotyrosine sites (pTyr-Var adds point mutants) read by sequencing; higher = stronger binding; tyrosines were phosphorylated by kinases first
Settings in all cases: peptide library: pTyr-Var
SHP2 C-SH2 domain E139D = biological target: SHP2 C-SH2 domain E139D
[1] = biological target: SHP2 C-SH2 domain wild-type
SHP2 N-SH2 domain L43F = biological target: SHP2 N-SH2 domain L43F
SHP2 N-SH2 domain T42A = biological target: SHP2 N-SH2 domain T42A
SHP2 N-SH2 domain T52S = biological target: SHP2 N-SH2 domain T52S
[2] = biological target: SHP2 N-SH2 domain wild-type

Measured: enrichment score
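Further: displayed peptides selected on beads carrying the immobilized SH2 domain, with library peptides lacking any tyrosine serving as negative controls.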

GMAHNYRNSSQ [AASS_Y188]
inactive: SHP2 C-SH2 domain E139D 0.598 | [1] 0.466 | SHP2 N-SH2 domain L43F 0.498 | SHP2 N-SH2 domain T42A 0.529 | SHP2 N-SH2 domain T52S 0.394 | [2] 0.517

GMAHNYRNRSQ [AASS_Y188_S191R]
inactive: SHP2 C-SH2 domain E139D 0.284 | [1] 0.221 | SHP2 N-SH2 domain L43F 0.315 | SHP2 N-SH2 domain T42A 0.219 | SHP2 N-SH2 domain T52S 0.31 | [2] 0.268

GEIQEYGAPLD [ABCC1_Y1508_S1512L]
inactive: SHP2 C-SH2 domain E139D 0.7 | [1] 0.656 | SHP2 N-SH2 domain L43F 0.692 | SHP2 N-SH2 domain T42A 0.57 | SHP2 N-SH2 domain T52S 0.497 | [2] 0.669

VGEGPYLISDL [ABCC12_Y7]
inactive: SHP2 C-SH2 domain E139D 1.07 | [1] 0.928 | SHP2 N-SH2 domain L43F 0.865 | SHP2 N-SH2 domain T42A 0.702 | SHP2 N-SH2 domain T52S 0.89 | [2] 0.948

VGEGPYLLSDL [ABCC12_Y7_I9L]
inactive: SHP2 C-SH2 domain E139D 0.616 | [1] 0.632 | SHP2 N-SH2 domain L43F 0.615 | SHP2 N-SH2 domain T42A 0.594 | SHP2 N-SH2 domain T52S 0.707 | [2] 0.751

VEKGSYSALRA [ABCC2_Y845_L849R]
inactive: SHP2 C-SH2 domain E139D 0.689 | [1] 0.657 | SHP2 N-SH2 domain L43F 0.67 | SHP2 N-SH2 domain T42A 0.436 | SHP2 N-SH2 domain T52S 0.579 | [2] 0.638

EQQDMYRLKVL [ABCC6_Y372_N370D]
inactive: SHP2 C-SH2 domain E139D 0.508 | [1] 0.586 | SHP2 N-SH2 domain L43F 0.668 | SHP2 N-SH2 domain T42A 0.568 | SHP2 N-SH2 domain T52S 0.647 | [2] 0.538

NLSVRYDSSLK [ABCC8_Y1353]
inactive: SHP2 C-SH2 domain E139D 1.09 | [1] 0.95 | SHP2 N-SH2 domain L43F 0.962 | SHP2 N-SH2 domain T42A 0.987 | SHP2 N-SH2 domain T52S 0.829 | [2] 1.09

FSQETYYRVSN [ABCD1_Y180_Q178E]
inactive: SHP2 C-SH2 domain E139D 0.987 | [1] 0.842 | SHP2 N-SH2 domain L43F 0.856 | SHP2 N-SH2 domain T42A 0.897 | SHP2 N-SH2 domain T52S 0.767 | [2] 0.954

FSQQTYYPVSN [ABCD1_Y180_R182P]
inactive: SHP2 C-SH2 domain E139D 1.39 | [1] 0.997 | SHP2 N-SH2 domain L43F 1.12 | SHP2 N-SH2 domain T42A 0.779 | SHP2 N-SH2 domain T52S 1.1 | [2] 1.07

FSQQTYFPVSN [ABCD1_Y180_R182P_YF]
inactive: SHP2 C-SH2 domain E139D 1.07 | [1] 1.2 | SHP2 N-SH2 domain L43F 1.18 | SHP2 N-SH2 domain T42A 0.997 | SHP2 N-SH2 domain T52S 0.997 | [2] 1.09

FSQQTYFRVSN [ABCD1_Y180_YF]
inactive: SHP2 C-SH2 domain E139D 1.21 | [1] 1.28 | SHP2 N-SH2 domain L43F 1.36 | SHP2 N-SH2 domain T42A 1.39 | SHP2 N-SH2 domain T52S 1.1 | [2] 1.22

SQQTYYRVSNM [ABCD1_Y181]
inactive: SHP2 C-SH2 domain E139D 0.948 | [1] 0.783 | SHP2 N-SH2 domain L43F 0.72 | SHP2 N-SH2 domain T42A 0.608 | SHP2 N-SH2 domain T52S 0.662 | [2] 0.871

SQQTYYPVSNM [ABCD1_Y181_R182P]
inactive: SHP2 C-SH2 domain E139D 0.953 | [1] 0.818 | SHP2 N-SH2 domain L43F 0.65 | SHP2 N-SH2 domain T42A 0.8 | SHP2 N-SH2 domain T52S 0.77 | [2] 0.772

SQQTYCRVSNM [ABCD1_Y181_Y181C]
inactive: SHP2 C-SH2 domain E139D 0.81 | [1] 0.914 | SHP2 N-SH2 domain L43F 0.752 | SHP2 N-SH2 domain T42A 0.662 | SHP2 N-SH2 domain T52S 0.711 | [2] 0.726

SQQTFCRVSNM [ABCD1_Y181_Y181C_YF]
inactive: SHP2 C-SH2 domain E139D 0.696 | [1] 0.628 | SHP2 N-SH2 domain L43F 0.757 | SHP2 N-SH2 domain T42A 0.639 | SHP2 N-SH2 domain T52S 0.77 | [2] 0.849

SQQTFYRVSNM [ABCD1_Y181_YF]
inactive: SHP2 C-SH2 domain E139D 0.865 | [1] 0.617 | SHP2 N-SH2 domain L43F 1.17 | SHP2 N-SH2 domain T42A 0.653 | SHP2 N-SH2 domain T52S 0.678 | [2] 0.733

KGELCYMHSRV [ABCD1_Y281_R280C]
inactive: SHP2 C-SH2 domain E139D 1.14 | [1] 0.829 | SHP2 N-SH2 domain L43F 0.948 | SHP2 N-SH2 domain T42A 0.794 | SHP2 N-SH2 domain T52S 1.03 | [2] 0.838

KGELRYMHSPV [ABCD1_Y281_R285P]
inactive: SHP2 C-SH2 domain E139D 1.27 | [1] 1.21 | SHP2 N-SH2 domain L43F 1.22 | SHP2 N-SH2 domain T42A 1.23 | SHP2 N-SH2 domain T52S 1.04 | [2] 1.25
